# Assay results from the supplement of paper PMC8728848.
# The list shows a part of the results.
# Key:
# Assay in all cases: glycan array binding signal (z-score within array); higher = stronger binding
# Conditions in all cases: glycan notation: IUPAC condensed, linker removed
# [1] = target: Gal(b1-4)GlcNAc(b1-3)Gal(b1-4)GlcNAc(b1-3)Gal(b1-4)GlcNAc(b1-3)Gal(b1-4)GlcNAc(b1-3)Gal(b1-4)GlcNAc(b1-2)Man(a1-3)[Gal(b1-4)GlcNAc(b1-3)Gal(b1-4)GlcNAc(b1-3)Gal(b1-4)GlcNAc(b1-3)Gal(b1-4)GlcNAc(b1-3)Gal(b1-4)GlcNAc(b1-2)Man(a1-6)]Man(b1-4)GlcNAc(b1-4)GlcNAc
# Outline: (§1)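 The binding signal is a Z-score computed within each array and averaged over linkers. Arrays of the same protein sequence at different concentrations or buffers were also averaged together. Data originate from 3228 arrays in the Consortium for Functional Glycomics database, kept only where the protein sequence was available.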
# [2] = target: Gal(b1-4)GlcNAc(b1-3)Gal(b1-4)GlcNAc(b1-3)Gal(b1-4)GlcNAc(b1-3)Gal(b1-4)GlcNAc(b1-3)Gal(b1-4)GlcNAc(b1-2)Man(a1-3)[Gal(b1-4)GlcNAc(b1-3)Gal(b1-4)GlcNAc(b1-3)Gal(b1-4)GlcNAc(b1-3)Gal(b1-4)GlcNAc(b1-3)Gal(b1-4)GlcNAc(b1-2)Man(a1-6)]Man(b1-4)GlcNAc(b1-4)[Fuc(a1-6)]GlcNAc
# Outline: as §1
# [3] = target: Gal(b1-4)GlcNAc(b1-3)Gal(b1-4)GlcNAc(b1-3)Gal(b1-4)GlcNAc(b1-3)Gal(b1-4)GlcNAc(b1-3)Gal(b1-4)GlcNAc(b1-2)[Gal(b1-4)GlcNAc(b1-3)Gal(b1-4)GlcNAc(b1-3)Gal(b1-4)GlcNAc(b1-3)Gal(b1-4)GlcNAc(b1-3)Gal(b1-4)GlcNAc(b1-6)]Man(a1-6)[Gal(b1-4)GlcNAc(b1-3)Gal(b1-4)GlcNAc(b1-3)Gal(b1-4)GlcNAc(b1-3)Gal(b1-4)GlcNAc(b1-3)Gal(b1-4)GlcNAc(b1-2)Man(a1-3)]Man(b1-4)GlcNAc(b1-4)[Fuc(a1-6)]GlcNAc
# Outline: as §1
# [4] = target: Gal(b1-4)GlcNAc(b1-3)Gal(b1-4)GlcNAc(b1-3)Gal(b1-4)GlcNAc(b1-3)Gal(b1-4)GlcNAc(b1-3)Gal(b1-4)GlcNAc(b1-3)Gal(b1-4)GlcNAc(b1-2)Man(a1-3)[Gal(b1-4)GlcNAc(b1-3)Gal(b1-4)GlcNAc(b1-3)Gal(b1-4)GlcNAc(b1-3)Gal(b1-4)GlcNAc(b1-3)Gal(b1-4)GlcNAc(b1-3)Gal(b1-4)GlcNAc(b1-2)Man(a1-6)]Man(b1-4)GlcNAc(b1-4)GlcNAc
# Outline: as §1
# [5] = target: Gal(b1-4)GlcNAc(b1-3)Gal(b1-4)GlcNAc(b1-3)GalNAc
# Outline: as §1
# [6] = target: Gal(b1-4)GlcNAc(b1-3)Gal(b1-4)GlcNAc(b1-3)[Gal(b1-4)GlcNAc(b1-3)Gal(b1-4)GlcNAc(b1-6)]GalNAc
# Outline: as §1
# [7] = target: Gal(b1-4)GlcNAc(b1-3)Gal(b1-4)GlcNAc(b1-6)[Gal(b1-3)]GalNAc
# Outline: as §1
# [8] = target: Gal(b1-4)GlcNAc(b1-3)Gal(b1-4)[Fuc(a1-3)]GlcNAc(b1-3)Gal(b1-4)[Fuc(a1-3)]GlcNAc
# Outline: as §1
# [9] = target: Gal(b1-4)GlcNAc(b1-3)GalNAc
# Outline: as §1
# [10] = target: Gal(b1-4)GlcNAc(b1-3)[Fuc(a1-3)GlcNAc(b1-6)]Gal(b1-4)Glc
# Outline: as §1
# [11] = target: Gal(b1-4)GlcNAc(b1-3)[Gal(b1-4)GlcNAc(b1-6)]Gal(b1-4)GlcNAc
# Outline: as §1
# [12] = target: Gal(b1-4)GlcNAc(b1-3)[Gal(b1-4)GlcNAc(b1-6)]GalNAc
# Outline: as §1
# [13] = target: Gal(b1-4)GlcNAc(b1-3)[GlcNAc(b1-6)]Gal(b1-4)GlcNAc
# Outline: as §1
# [14] = target: Gal(b1-4)GlcNAc(b1-6)Gal(b1-4)GlcNAc
# Outline: as §1
# [15] = target: Gal(b1-4)GlcNAc(b1-6)Gal(b1-4)GlcNAc(b1-6)GalNAc
# Outline: as §1
# [16] = target: Gal(b1-4)GlcNAc(b1-6)GalNAc
# Outline: as §1
# [17] = target: Gal(b1-4)GlcNAc(b1-6)[Gal(b1-3)]GalNAc
# Outline: as §1
# [18] = target: Gal(b1-4)GlcNAc(b1-6)[Gal(b1-4)GlcNAc(b1-3)]GalNAc
# Outline: as §1
# Gal(b1-4)GlcNAc6P = target: Gal(b1-4)GlcNAc6P
# Outline: as §1
# Gal(b1-6)Gal = target: Gal(b1-6)Gal
# Outline: as §1
# Gal3S(b1-3)GalNAc = target: Gal3S(b1-3)GalNAc
# Outline: as §1
# Gal3S(b1-3)GlcNAc = target: Gal3S(b1-3)GlcNAc
# Outline: as §1
# [19] = target: Gal3S(b1-3)[Fuc(a1-4)]GlcNAc
# Outline: as §1
# Gal3S(b1-4)Glc = target: Gal3S(b1-4)Glc
# Outline: as §1
# Gal3S(b1-4)Glc6S = target: Gal3S(b1-4)Glc6S
# Outline: as §1
# Gal3S(b1-4)GlcNAc = target: Gal3S(b1-4)GlcNAc
# Outline: as §1
# Gal3S(b1-4)GlcNAc6S = target: Gal3S(b1-4)GlcNAc6S
# Outline: as §1
# [20] = target: Gal3S(b1-4)[Fuc(a1-3)]Glc6S
# Outline: as §1
# [21] = target: Gal3S(b1-4)[Fuc(a1-3)]GlcNAc
# Outline: as §1
# [22] = target: Gal3S(b1-4)[Fuc(a1-3)]GlcNAc6S
# Outline: as §1
# Gal3S4S(b1-4)GlcNAc = target: Gal3S4S(b1-4)GlcNAc
# Outline: as §1
# Gal3S6S(b1-4)GlcNAc = target: Gal3S6S(b1-4)GlcNAc
# Outline: as §1
# Gal3S6S(b1-4)GlcNAc6S = target: Gal3S6S(b1-4)GlcNAc6S
# Outline: as §1
# Gal4S(b1-4)GlcNAc = target: Gal4S(b1-4)GlcNAc
# Outline: as §1
# Gal4S6S(b1-4)GlcNAc = target: Gal4S6S(b1-4)GlcNAc
# Outline: as §1
# Gal6P(b1-4)GlcNAc = target: Gal6P(b1-4)GlcNAc
# Outline: as §1
# Gal6S(b1-3)GlcNAc = target: Gal6S(b1-3)GlcNAc
# Outline: as §1
binder,measurement,setting,value
"MAA (Maackia amurensis), P0DKL3 (protein) MATSNSKPTQVLLATFLTFFFLLLNNVNSSDELSFTINNFVPNEADLLFQGEASVSSTGVLQLTRVENGQPQKYSVGRALYAAPVRIWDNTTGSVASFSTSFTFVVKAPNPDITSDGLAFYLAPPDSQIPSGSVSKYLGLFNNSNSDSSNQIVAVELDTYFAHSYDPWDPNYRHIGIDVNGIESIKTVQWDWINGGVAFATITYLAPNKTLIASLVYPSNQTTFSVAASVDLKEILPEWVRVGFSAATGYPTEVETHDVLSWSFTSTLEANCDAATENNVHIARYTA",glycan array binding signal (z-score),[1],-0.018
same,glycan array binding signal (z-score),[2],0.211
same,glycan array binding signal (z-score),[3],0.381
same,glycan array binding signal (z-score),[4],0.445
same,glycan array binding signal (z-score),[5],0.314
same,glycan array binding signal (z-score),[6],0.197
same,glycan array binding signal (z-score),[7],0.296
same,glycan array binding signal (z-score),[8],-0.167
same,glycan array binding signal (z-score),[9],-0.205
same,glycan array binding signal (z-score),[10],-0.249
same,glycan array binding signal (z-score),[11],-0.064
same,glycan array binding signal (z-score),[12],-0.233
same,glycan array binding signal (z-score),[13],-0.232
same,glycan array binding signal (z-score),[14],-0.208
same,glycan array binding signal (z-score),[15],-0.24
same,glycan array binding signal (z-score),[16],-0.147
same,glycan array binding signal (z-score),[17],-0.182
same,glycan array binding signal (z-score),[18],-0.204
same,glycan array binding signal (z-score),Gal(b1-4)GlcNAc6P,-0.224
same,glycan array binding signal (z-score),Gal(b1-6)Gal,-0.212
same,glycan array binding signal (z-score),Gal3S(b1-3)GalNAc,0.096
same,glycan array binding signal (z-score),Gal3S(b1-3)GlcNAc,1.5
same,glycan array binding signal (z-score),[19],-0.215
same,glycan array binding signal (z-score),Gal3S(b1-4)Glc,5.2
same,glycan array binding signal (z-score),Gal3S(b1-4)Glc6S,6.87
same,glycan array binding signal (z-score),Gal3S(b1-4)GlcNAc,6.25
same,glycan array binding signal (z-score),Gal3S(b1-4)GlcNAc6S,4.71
same,glycan array binding signal (z-score),[20],0.493
same,glycan array binding signal (z-score),[21],-0.224
same,glycan array binding signal (z-score),[22],7.75
same,glycan array binding signal (z-score),Gal3S4S(b1-4)GlcNAc,-0.241
same,glycan array binding signal (z-score),Gal3S6S(b1-4)GlcNAc,-0.28
same,glycan array binding signal (z-score),Gal3S6S(b1-4)GlcNAc6S,0.832
same,glycan array binding signal (z-score),Gal4S(b1-4)GlcNAc,0.32
same,glycan array binding signal (z-score),Gal4S6S(b1-4)GlcNAc,-0.264
same,glycan array binding signal (z-score),Gal6P(b1-4)GlcNAc,-0.202
same,glycan array binding signal (z-score),Gal6S(b1-3)GlcNAc,-0.354
